The supplement of paper PMC11417369
± gives the standard deviation of the averaged measurements. The list shows a part of the results.

What follows are sequences tested on PfAP2-I AP2 domain 3 (GST-tagged) (assay: gcPBM binding intensity (ln(normalized median fluorescence intensity)); higher = stronger DNA binding).
How it was run: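 GST-tagged P. falciparum DNA-binding domains produced in E. coli were incubated for 1 h on an Agilent 4 × 180k array of primer-extended double-stranded 36-bp intergenic genomic probes with negative controls. Binding intensity is the highest Masliner-normalised natural-log median intensity across replicate spots of either probe orientation, with bound protein detected by Alexa488 anti-GST antibody at 488 nm.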

Sequence	gcPBM binding intensity (ln)
AATTAGCTCAAAGGTTGTACAAATATATTTTAATGG [XGTACX_site2352]	8.04 ± 0.33
ATATATATATCTAATTGTACATATTTTATAAATAAG [XGTACX_site4840]	8.635 ± 0.078
AAAAATTAAATGTACACACACCTTAAACAATGTCAT [CACACA_site6958]	7.96 ± 0.25
AAATACTGATTTGGTTGTACATGTGCACTATATAAC [XGTACX_site3795]	11.3 ± 0.56
ATAAATATATTTATATGTACATATAATTTTACATAT [XGTACX_site5440]	7.86 ± 0.42
TATAATCTAACATAATGTACATGTATATGCACTTTA [XGTACX_site369]	10.1 ± 0.68
TTTTTTACAATTAACACACTCAAAAATAATATTAAA [CACACA_site5198]	7.92 ± 0.34
AATTTTTTAAATGTGTGTACATATTATTTAAATAAT [XGTACX_site5967]	7.95 ± 0.18
TATATTATATATATATGTACATATGGCAAAACATTA [XGTACX_site7958]	8.02 ± 0.55
AAAAAAAAAAAAAAATGTACCCATAAAATAAGCATT [XGTACX_site8576]	8.35 ± 0.54
AATCACAACGAACACACACACAAAAAAAAAAAAAAA [CACACA_site6790]	7.96 ± 0.54
TGATTTTTTCATATTCTACACACGTGAACAAATGTG [CACACA_site8987]	7.76 ± 0.77
TTAATTATTATATAAGTGCAATAATAAAAAGTTGTA [GTGCAC_site9552]	10.7 ± 0.76
ATTTAAAACAAAAGTAGTACGTCTAATAAATTCAAC [XGTACX_site4344]	7.8 ± 0.26
TTATCAATAAAATGCACACACTGTAATATTATTAAA [CACACA_site6055]	9.08 ± 0.14
ATATATATTTATATTTGTACGAATTAAAATTTTTTA [XGTACX_site5200]	7.7 ± 0.52
ATAGCTTTTATTTAAAGTACAAAAAGGATGTTGAAA [XGTACX_site3810]	7.77 ± 0.62
AAAAAAAAAAAACACACACACACACCCATACATACA [CACACA_site707]	8.2 ± 0.17
AGACAAAATGTTTGAAGTACTTTTTATCAAATTAAA [XGTACX_site8885]	7.66 ± 0.2
AGGGAATAAGTAAGGTGTACATAATTATGTTACTTT [XGTACX_site6152]	7.95 ± 0.52
TTTTTTTATTTTATAAAGCAAAAATAAGAATGAAAT [XGTACX_negctrl_site270]	7.85 ± 0.4
TATATGTATGTATGTACACACAAAAAATGGAATATA [CACACA_site3717]	7.93 ± 0.35

Sequence	gcPBM binding intensity (ln)
TTTTTTTTTTTTAATTGTACATTTTATATAAACTTT [XGTACX_site6806]	7.93 ± 0.69
AATTTATTTTTTTAATGTACATATGGTATAAATATA [XGTACX_site8012]	7.83 ± 0.49
TGTTGATTTCTCAAATGTACTTTACTTTTCTTCAGA [XGTACX_site7916]	7.54 ± 0.76
AATATATATATATGTACACACTCCAATACATATACA [CACACA_site2682]	7.92 ± 0.44
TTAAGAATATCTTAGAGTACATTTTATCATCTTAAA [XGTACX_site8298]	7.3 ± 0.36
TCTTTTTAAATTACTATAATACATTCATAAATTATA [GTGCAC_negctrl_site448]	7.64 ± 0.34
TCTTGTTTTCAAATATGTACATAGAATAGACATTTT [XGTACX_site684]	7.75 ± 0.3
AAATATATAAAATATACACACAGTAATATATATATA [CACACA_site1385]	8.915 ± 0.021
AAGTTTTATTTAAATTGTACTAAAATTTTTATATTA [XGTACX_site7065]	7.7 ± 0.38
TATATATAAATATTCAGTACATAGTATTATTAAGTA [XGTACX_site1980]	7.62 ± 0.31
ATAAAATGAACAAACACACACACATATATATATATA [CACACA_site2402]	9.32 ± 0.2
TATTTAAGAATATGAAGTACATATATTATTTAAAAA [XGTACX_site7897]	7.64 ± 0.32
CATATAAATAAATACACACACACACGCCTTATAATT [CACACA_site7830]	8.12 ± 0.67
TATATAGGTATCATTACACACATGTATACTTATTTG [CACACA_site7864]	7.7 ± 0.49
CCTAAAAAAAAGAAATGATATACATATGTATATATA [GTGCAC_negctrl_site100]	7.4 ± 0.65
TTTTTCTTTCTCTATTGTACACATGGAAACACATAA [XGTACX_site4601]	8.4 ± 0.55
TACAATTTTTTAAATGCACACAAAAGGAATAAATAA [CACACA_site8075]	10.1 ± 0.15
AAAAGCAAGTTCCAGGGTACATATATATGAAAAAAC [XGTACX_site2408]	8.12 ± 0.73
TAATATATGTATTGCACACCTATAACCATTATTTCT [CACACA_site1498]	10.2 ± 0.38
AAAAATATGTCCATGAAAAGGATAGGCAGGTAATCA [XGTACX_negctrl_site93]	8.06 ± 0.86
AAATATATTTTACATTGTACATGAATAAACTATAAA [XGTACX_site2080]	7.73 ± 0.37
AAAAATTAAATAAATTTACACACTAATAATTACATA [CACACA_site8260]	7.48 ± 0.49

Sequence	gcPBM binding intensity (ln)
ACGTTAAAATATTGGGTGCTAACACAATAAAAATAA	8.85 ± 0.21
CAATTTTTTAAATGCACACAAAAGGAATAAATAAAT [CACACA_site544]	10.1 ± 0.44
AAGAAGAAATGCTTTGCATGCAAATTTTATGCCAAC [TGCATGCA_site721]	7.98 ± 0.65
AACAATTGGAATAACGCATGCATTTATAATATAGAA [TGCATGCA_site298]	8.17 ± 0.75
ACAAATTTATACTTAAAACACACGTAATCATTTATA [CACACA_site1636]	7.66 ± 0.62
TGAATATTCCTATGCACACAAATTAAAATACATAAT [CACACA_site4403]	8.74 ± 0.2
TAAAATAATTTATGCATACACACATATATATATATA [CACACA_site4021]	9.49 ± 0.26
TACAAAAAAAAAAAATAGATAAAATAATAATCAAAT [TGCATGCA_negctrl_site524]	7.46 ± 0.45
ATATATTGAACATATTGTACATTTTGTTAATATTTT [XGTACX_site7622]	7.44 ± 0.49
TCTCAAGTTGTTAAAAAATAAAAACAATAAATCTAA [CACACA_negctrl_site165]	7.38 ± 0.35
AATTGGGAACTGTAATGTACATATATTGAAAGTATA [XGTACX_site7081]	7.84 ± 0.45
ACAAAAAAAAATATGTTAACTATATATATATATATA [CACACA_negctrl_site346]	9.38 ± 0.29
TATTTATTTGTACATATACACACTTAAATATGTTTA [CACACA_site3902]	7.83 ± 0.4
TTATATTTCTTGAAGGGTACATACCATTATTTTTAA [XGTACX_site1159]	7.82 ± 0.48
AGAAAACTCGCTTTTCTAAATCTCAAAAAAAAAAAA [XGTACX_negctrl_site94]	7.98 ± 0.78
ATACATATATTAGGATGTACGTTTATTTTAGTTATT [XGTACX_site7169]	7.7 ± 0.34
ATATATTTATATATTACACACAATATTGGAGACATA [CACACA_site931]	7.94 ± 0.51
TAAAAAAATAAAATTACACACATATATAGATATATA [CACACA_site7273]	7.25 ± 0.57
CACTTTTTTTAAATGTGTACGTATATGAAAATATCA [XGTACX_site4854]	7.88 ± 0.4
ATATACATATCATGTAGTACAATTTTTTTACTTTTT [XGTACX_site7988]	7.63 ± 0.41
TAAACAAAAAGGAAGAGTACTTGTAAAATTTGTAAA [XGTACX_site3003]	7.86 ± 0.61
TGAATACATAAATATAGTACATATATATATATATTA [XGTACX_site8756]	7.58 ± 0.15

Sequence	gcPBM binding intensity (ln)
AGATCATAATATTATACACACATTATGTATATGTAA [CACACA_site1490]	7.62 ± 0.49
TATAATATTATTTGAAGTACAAACATAAAAGAATTA [XGTACX_site3161]	7.66 ± 0.47
GAACCATTTTTTGGTATACACACGTAATTATAGAAT [CACACA_site1851]	7.79 ± 0.64
TACAAAAAATTATGGAGTACATATATAATATACAAT [XGTACX_site1004]	7.96 ± 0.2
GTTTCTATTCACATTTTACACACGTCCATCGCATTT [CACACA_site9142]	8.45 ± 0.76
TTTTGTTGTATGATAATTCTTTTATCAATATGTCTT [TGCATGCA_negctrl_site567]	7.45 ± 0.67
ACCAAATTATCAAATGGTACACATAAAATAATAAAA [XGTACX_site865]	7.69 ± 0.59
TAATTAACCTATGCATTCATATAGATACATAAATAT [CACACA_negctrl_site885]	8.1 ± 0.11
TAATTTTTTTTTTTTTTTCATTCTTTTCCTTTGATT [CACACA_negctrl_site1365]	7.18 ± 0.61
TTTATATAATTTTTTTGTACATATATATGAATACAT [XGTACX_site2316]	7.73 ± 0.54
TATATTTTCCTGCAAACACACATATAAATGGGTAGA [CACACA_site4451]	8.29 ± 0.76
TTTTTTTTTTTTGGTAGTACATAATATTAATATAAT [XGTACX_site4422]	8.11 ± 0.62
ATATACTCATTTAATACACACAAAGAGAAAATTAAT [CACACA_site1923]	7.92 ± 0.4
ATATATATATATATGGTGCATGAAAATTTACTTTGA	10.11 ± 0.085
GATATTTGTTCATATACACACTTTTGATAAAATATG [CACACA_site4807]	7.82 ± 0.59
TACTTTTATAAAAATTTTATCAAATTCTATATATGT [TGCATGCA_negctrl_site308]	7.79 ± 0.38
TTTTAAATTTAGTGTAGTACACTTTTTTCAAATATA [XGTACX_site4659]	7.99 ± 0.37
ATATTATCATTTTTTTTAATGGAAAAAAAAAAAAAA [CACACA_negctrl_site1298]	8.03 ± 0.57
ATATAATTCAAATACAGTACATATACAATATATACA [XGTACX_site1191]	7.69 ± 0.34
ATATATATAAAAGAAACAACATTTATTCAAAAGGTA [CACACA_negctrl_site749]	7.91 ± 0.63
TTATTCTTTTAATATACACACTTTGTCTTTTCGCGC [CACACA_site5525]	7.63 ± 0.85
TACATATTTATATACACACACACACGGATATTTATA [CACACA_site7239]	8.02 ± 0.19
